Data: PubChem BioAssay AID1030 (National Center for Advancing Translational Sciences (NCATS), 2008)
The whole screen tested about 220,000 compounds, of which about 16,000 (7.3%) were called active. Inconclusive means that the source gave no clear call. Such entries were picked first, then a sample of the others. The call rests on the fitted dose curve; in most records, active means well fitted inhibition curve with a large enough effect (not every such curve was filed as active); inconclusive means small, poorly fitted or top-dose-only effect, or another doubt; inactive means no such curve, though single readings can be large or run the other way. A potency beside an inconclusive call is a rough fit, not a confirmed value.

These molecules were tested against Aldehyde dehydrogenase 1A1 (Homo sapiens) (UniProt P00352) (assay: qHTS Assay for Inhibitors of Aldehyde Dehydrogenase 1 (ALDH1A1)). Conditions: Purified ALDH1A1, NADH fluorescence, propionaldehyde substrate; series mostly up to 75.3 µM; activity, negative = inhibition: at the top concentration.
Chain of UniProt P00352 (P00352 whole entry, looked up): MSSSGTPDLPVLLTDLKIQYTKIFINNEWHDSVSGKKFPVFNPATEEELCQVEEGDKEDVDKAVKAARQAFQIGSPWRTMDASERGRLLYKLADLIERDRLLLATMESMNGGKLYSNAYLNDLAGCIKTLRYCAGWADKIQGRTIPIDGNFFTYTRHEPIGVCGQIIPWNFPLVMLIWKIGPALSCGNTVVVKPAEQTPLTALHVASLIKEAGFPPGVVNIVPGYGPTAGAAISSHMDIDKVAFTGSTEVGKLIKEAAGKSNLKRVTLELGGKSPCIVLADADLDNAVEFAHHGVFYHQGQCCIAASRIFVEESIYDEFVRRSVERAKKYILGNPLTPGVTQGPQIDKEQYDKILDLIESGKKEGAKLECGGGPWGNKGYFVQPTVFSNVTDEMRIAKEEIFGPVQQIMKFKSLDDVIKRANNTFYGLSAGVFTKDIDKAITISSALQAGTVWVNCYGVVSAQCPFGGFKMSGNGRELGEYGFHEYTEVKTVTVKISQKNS
Potency means the concentration at half of the fitted maximal effect; tags describe the fitted curve by direction and shape.
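Wherever activity, negative = inhibition is given: plate controls were no enzyme wells and a reference inhibitor.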

Potency, inconclusive:
CCn1c(CSCc2ccc(C)cc2)nnc1SCC(=O)N1CCN(c2ccccc2)CC1 39.8 µM [inhibitor, single point]
CCn1c(C)cc(/C=C2\NC(=O)N(CC(=O)Nc3cccc(C)c3)C2=O)c1C 35.5 µM [inhibitor, single point]
COc1ccc2[nH]cc(C(=O)N3CCCCC3)c(=O)c2c1 39.8 µM [inhibitor, single point]
COc1ccc2c(c1)nc(SCC(=O)C(C)(C)C)n2C 25.1 µM [inhibitor, single point]
CN(C)/C=N/c1ncc(C(=O)c2ccc3ccccc3c2)s1 14.1 µM [inhibitor, partial curve, poor fit]
COc1ccc(N(CC(O)Cn2c(C)nc3ccccc32)S(=O)(=O)c2ccc(C)cc2)cc1 (stereo not drawn) 3.55 µM [inhibitor, full curve]
Cc1cc(=O)oc2cc(OS(C)(=O)=O)ccc12 39.8 µM [inhibitor, single point]
O=C(CCC1CCCCC1)NCCN1C2=NC[C@H](Cc3ccc(O)cc3)N2C[C@H]1Cc1ccc(O)cc1 22.4 µM [inhibitor, partial curve]
CCc1cc2cccc(C)c2nc1SCC(=O)N1CCN(C(=O)c2ccco2)CC1 37.7 µM [inhibitor, single point]
COc1ccc(NCc2nnc(SCC(=O)Nc3ccccc3OC)o2)cc1 25.1 µM [inhibitor, single point]
CN(C)c1cc(NC(=O)CNC(C)(C)CC(C)(C)C)c2ccccc2n1 28.2 µM [inhibitor, partial curve]
CCCCNc1nc(C)nc2c1nc(-c1ccccc1)n2C(C)CCCN(CC)CC (stereo not drawn) 28.2 µM [inhibitor, partial curve]
COc1ccc(-n2nc(C(=O)NCC(=O)Nc3ccccn3)c3ccccc3c2=O)cc1Cl 39.8 µM [inhibitor, single point]
O=C(Nc1nnc(-c2ccccc2)o1)c1cc(-c2cccs2)nc2ccccc12 39.8 µM [inhibitor, single point]
Cc1cc(C)n(C2CC(=O)N(c3cccc(Cl)c3)C2=O)n1 (stereo not drawn) 39.8 µM [inhibitor, single point]
CCCCn1c(SCC(=O)NCC2CCCO2)nc2ccc(N3CCOCC3)cc2c1=O (stereo not drawn) 28.2 µM [inhibitor, partial curve]
COCCn1c(CCC(=O)O)ccc1-c1cccs1 39.8 µM [inhibitor, single point]
CCOc1ccc(CCNC(=O)C2=C(C)C(=O)OC23CCCCC3)cc1OCC 37.7 µM [inhibitor, single point]
CSc1nc2ccc(S(=O)(=O)N3CCc4ccccc43)cc2s1 11.2 µM [inhibitor, partial curve]
Cc1noc(C)c1COC(=O)c1ccc(-c2nc3ccccc3s2)s1 23.8 µM [inhibitor, single point]
O=[N+]([O-])c1cncc([N+](=O)[O-])c1Nc1ccccc1Cl 39.8 µM [inhibitor, single point]
CCN(C(=O)CCc1nc(-c2ccccc2F)no1)c1cc(OC)ccc1OC 39.8 µM [inhibitor, single point]
Nc1nc(N2CCN(C(=O)c3ccco3)CC2)nc2ccccc12 28.2 µM [inhibitor, partial curve]

Potency, active:
CCO/N=C(/c1nonc1N)N1CCN(c2ccc([N+](=O)[O-])cc2)CC1 11.2 µM
CCN(CC)c1ccc(/C=C(\C#N)C(N)=O)cc1 31.6 µM
O=C(c1cc2nc(-c3ccc(F)cc3)cc(C(F)(F)F)n2n1)N1CCCCC1c1cccnc1 (stereo not drawn) 14.1 µM
CC(C)CNC1=CC(=O)CC(c2ccco2)C1 (stereo not drawn) 14.1 µM

activity, negative = inhibition, inactive:
CCN1CCCC1CNC(=O)Cn1cnc2sc(C)c(S(=O)(=O)N3CCC(C)CC3)c2c1=O (stereo not drawn) 5.98%
Cc1c(Cl)cccc1NC(=S)NCC(c1cccnc1)N(C)C (stereo not drawn) 16.3%
CCc1nnc(NC(=O)C2COc3ccccc3O2)s1 (stereo not drawn) 3.41%
CCOc1cc(CNc2ccc3c(c2)OCCO3)cc(Br)c1OC 2.52%
CCOc1ccc(NC(=O)c2ccc(N)cc2)cc1 3.84%
COc1ccc(CNC(=O)C(c2ccncc2)N(C(=O)Cc2cccs2)c2ccccc2)cc1 (stereo not drawn) -7.13%
O=C1CC(=O)N(Cc2ccco2)C(=S)N1 -10.2%
Cn1c(=O)[nH]c(=O)c2c1nc(CN1CCOCC1)n2Cc1ccccc1 -10.4%
CC(C)(C)NC(=O)C1CCN(C(=O)c2ccc(-c3ccccc3)cc2)CC1 11.5%
C=CCOC(=O)CCP(=O)(CCC(=O)OCC=C)c1ccccc1 6.1%
COC(=O)c1ccc(C(NC(=O)OCc2ccccc2)/C(=C/[C@@H](C)C(=O)NCc2ccc(OC)c(OC)c2)c2cccnc2)cc1 (stereo partly drawn) 2.18%
Cc1ccc(-c2c[n+](=O)c3c(n2[O-])CCC3)cc1 7.22%
Cc1cc(C)n(-c2ccc(C(=O)N3CCc4ccccc43)cc2)n1 7.12%
CC(=O)NNc1nc(-c2ccc(NC(C)=O)cc2)cs1 -2.09%
CC1=C(C(=O)Nc2ccccc2C)C2(CCCCC2)C(C(N)=O)C(=S)N1 (stereo not drawn) -18.1%
CCC(=O)N1CCc2cc(S(=O)(=O)NC(CC(C)C)C(=O)N3CCc4ccccc43)ccc21 (stereo not drawn) 6.85%
CC1(C)SC(=S)N(NC(=O)Nc2ccccc2)C1N(O)C(=O)Nc1cccc2ccccc12 (stereo not drawn) 10.8%
COC(=O)[C@@]1(Cc2ccc(OC)cc2)[C@H]2c3cc(C(=O)N(C)C)n(Cc4ccc(OC)c(OC)c4)c3C[C@H]2CN1C(=O)c1ccccc1 -4.77%
CC1(C(=O)Nc2ccc3ccccc3c2)CC1(Br)Br (stereo not drawn) -11.9%
COc1ccc(/C=N/n2c(C)cc(C)c(C(N)=O)c2=O)cc1 1.11%
CC(C)Nc1nc(-c2ccncc2)nc(-c2ccc(Cl)cc2)c1C#N 1.26%
